The record followed here is article PMC6919601, “Identification of Plasmodium dipeptidyl aminopeptidase allosteric inhibitors by high throughput screening” (PLoS ONE, 2019).

Hit rate of the full screen: of about 110,000 compounds, about 230 (0.21%) showed an effect of 50% or more. Some of the results follow.
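Also: 30 min substrate incubation versus DMSO and 10 µM JCP410 controls.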

In this experiment the target is DPAP1 (Plasmodium falciparum, UniProt Q8IIJ9). As to the kind of experiment: primary screen, percent inhibition; read by cleavage of a fluorogenic dipeptide substrate; higher = more effect of the substance. On the set-up: species or system P. falciparum D10 trophozoite lysates; single well.
DPAP1, sequence (Q8IIJ9 whole entry, looked up): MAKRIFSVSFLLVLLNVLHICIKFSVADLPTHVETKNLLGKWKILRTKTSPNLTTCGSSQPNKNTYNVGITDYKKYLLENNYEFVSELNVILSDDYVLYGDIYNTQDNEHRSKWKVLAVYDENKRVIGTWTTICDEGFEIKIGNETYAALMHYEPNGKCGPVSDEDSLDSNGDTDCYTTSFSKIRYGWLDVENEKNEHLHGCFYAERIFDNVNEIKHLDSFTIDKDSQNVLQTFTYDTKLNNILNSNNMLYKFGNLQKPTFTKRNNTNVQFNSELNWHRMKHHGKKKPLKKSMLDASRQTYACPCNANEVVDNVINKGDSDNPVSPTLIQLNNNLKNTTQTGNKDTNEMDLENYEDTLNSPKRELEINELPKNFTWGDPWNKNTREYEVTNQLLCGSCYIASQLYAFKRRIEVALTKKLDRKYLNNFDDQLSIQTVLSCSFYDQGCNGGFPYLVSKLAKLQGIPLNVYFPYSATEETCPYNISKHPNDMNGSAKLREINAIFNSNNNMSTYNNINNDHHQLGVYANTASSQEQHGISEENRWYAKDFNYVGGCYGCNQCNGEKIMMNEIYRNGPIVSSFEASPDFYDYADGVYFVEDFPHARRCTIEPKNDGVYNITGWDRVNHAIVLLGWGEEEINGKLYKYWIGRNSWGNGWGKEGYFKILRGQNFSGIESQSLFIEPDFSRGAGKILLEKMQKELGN
With `Cc1cc(C)c(Cn2c3ccccc3c3cnn(CC(=O)NCCN4CCOCC4)c(=O)c32)c(C)c1`, the “% Inhibition @ 10 uM” value is -5.19%. Then `CCOc1ccc(-c2cc(NC(=O)c3ccncc3)c(C(=O)OC)s2)cc1`, with -0.447%; and `CC(C)CSc1nc2c(c(=O)[nH]c(=O)n2C)n1CC(O)COc1ccc(Cl)cc1` (centres unmarked), with 0.562%. Then `COc1ccc(C2C(C#N)=C(N)OC3=C2C(=O)CC(C)(C)C3)cc1COc1ccccc1Cl` (centres unmarked), with 3.05%. On to `Cc1ccc(CNC(=O)C(C)Sc2nc3nc(C)cc(C)n3n2)cc1` (centres unmarked), for which the “% Inhibition @ 10 uM” value is listed as -4.06%. Then `COc1ccc(CCNc2cc(C)c(C#N)c3nc4ccccc4n23)cc1OC`, with 7.08%; and `CN(C)Cc1ccccc1Sc1ccc(O)cc1O`, with -14.4%. Then `COc1ccc(Cl)cc1/N=C/C1=C(O)CC(c2ccccc2)CC1=O` (centres unmarked), with -3.16%; and `Cc1cc(C)cc(NC(=O)c2ccc(Br)cc2)c1`, with 0.247%.

With `O=[N+]([O-])c1cc(C(F)(F)F)ccc1SCCO`, the “% Inhibition @ 10 uM” value was -8.76%. In the case of `Cc1noc2ncnc(N3CCN(c4ncccn4)CC3)c12`, the “% Inhibition @ 10 uM” value is 1.57%.

Take `CCOC(=O)N1CCC(NC(=O)c2oc3c(c2C)-c2n[nH]cc2CC3)CC1`: the “% Inhibition @ 10 uM” value was -4.68%.

In the case of `O=C1N/C(=C\c2cccc(C(F)(F)F)c2)C(=O)N1Cc1ccc(Cl)cc1`, the “% Inhibition @ 10 uM” value is 2.17%. To `CCOc1ccccc1-n1nnc(C(N)=O)c1C` belongs 6.38%. Then `CC1=NN(C(=O)c2ccc(O)cc2)C(O)(c2ccc(Cl)cc2)C1` (centres unmarked), with -0.511%; and `Cc1ccc(-n2nc3c(N4CCC(C(=O)O)CC4)nnc(C)c3c2C)cc1`, with 1.43%. For the molecule `N#C/C(=C\c1cccs1)C(=O)Nc1ncc(Cc2cccc(Cl)c2)s1`, the “% Inhibition @ 10 uM” value is given as 0.611%. On to `O=C(CC1CC2CCC1C2)Nc1nc2ccc(Br)cc2s1` (centres unmarked), for which the “% Inhibition @ 10 uM” value is recorded as -1.46%. In the case of `Cc1cccc(C(=O)NC2(C(F)(F)F)N=C(SCc3ccccc3)NC2=O)c1` (centres unmarked), the “% Inhibition @ 10 uM” value is recorded as 0.032%.

Turning to `COc1cc(NC(=O)c2ccccc2OC)c(OC)cc1Cl`, the “% Inhibition @ 10 uM” value was found to be 2.65%. As to `CS(=O)(=O)N(CC(=O)NC1CCCCC1)c1ccc2c3c(cccc13)CC2`, the “% Inhibition @ 10 uM” value was -9.66%. Then `COc1ccc(C2=N/C(=C\C(Br)=C\c3ccccc3)C(=O)O2)cc1OC`, with 1.25%; and `CCc1ccc(-n2nc(C)c3c(C)cc(=O)n(CC(=O)NCc4ccccc4)c32)cc1`, with 5.78%; and `O=C1CSc2nnc(-c3cccc(Cl)c3)n2N1`, with -0.45%. As for `COc1cccc2sc(N(CCCN(C)C)C(=O)c3nc4ccccc4s3)nc12`, the “% Inhibition @ 10 uM” value is -2.41%. Then `COC(=O)c1sccc1NC(=O)c1nc(-c2ccc(Cl)cc2)n2c1CCCCC2`, with 6.77%.

With `CC(CCO)Nc1nc2c(c(=O)n(C)c(=O)n2C)n1Cc1cccc(Br)c1` (centres unmarked), the “% Inhibition @ 10 uM” value is -0.339%. `O=c1c2c([nH]c(=S)n1C1CCCC1)-c1ccccc1CC21CCCC1`: the “% Inhibition @ 10 uM” value is listed as -0.436%. To `CCO/C(O)=C1\C(C)=NC2=C(C(=O)CCC2)C1c1cc(Cn2cnc3ccccc32)cs1` (centres unmarked) belongs -1.05%; to `O=C(NCc1ccccc1)c1cc2n(n1)C(C(F)(F)F)CC(c1ccc3c(c1)OCO3)N2` (centres unmarked), 0.111%.

Turning to `CC(C)NC(=O)C1CCN(S(=O)(=O)c2ccc(Cl)cc2)CC1`, the “% Inhibition @ 10 uM” value is given as 4.74%. To `O=C(O)Cc1ccc(NC(=O)c2ccc(Cl)c(Cl)c2)cc1` belongs 4.75%; to `COc1ccc(C)cc1NC(=O)c1cnn2c(C(F)F)cc(-c3ccccc3)nc12`, 2.21%.

As to `O=C(c1ccc(F)cc1)c1coc2ccccc2c1=O`, the “% Inhibition @ 10 uM” value is -5.14%. For `Cc1ccc(CNC(=O)Cn2ncn3nc(-c4cccs4)cc3c2=O)cc1`, the “% Inhibition @ 10 uM” value is listed as -2.85%. To `COc1ccc(-c2nn(C)c3sc(C(=O)N4CCCCCC4)cc23)cc1OC` belongs 4.51%; to `Cc1cc(C(=O)N(C)Cc2ccccc2)n[nH]1`, 1.76%. Then `Cc1cc(/C=C2/SC(=O)N(C)C2=O)c(C)n1-c1ccc(Br)cc1`, with -0.995%.

Regarding `Cc1cc(C)cc(NS(=O)(=O)c2ccc(NC(=O)Cc3ccccc3)cc2)c1`, the “% Inhibition @ 10 uM” value was -0.173%. To `Cn1cc(CCCC(=O)NCc2ccc3c(c2)OCO3)c2ccccc21` belongs 3.66%; to `COc1ccc(C2C(C(=O)c3ccc(OC(C)C)cc3)=C(O)C(=O)N2c2ccccn2)cc1` (centres unmarked), -5.71%; to `Cc1cc(NC(=O)c2ccc(NC(=O)C(C)C)cc2)no1`, -2.12%. Consider `O=C1c2cccnc2C(=O)N1Cc1ccc(F)cc1S(=O)(=O)NCc1ccc2c(c1)OCO2`, for which the “% Inhibition @ 10 uM” value is listed as -7.09%. As for `COc1ccc2oc(=O)cc(CN(CCCOC(C)C)Cc3ccco3)c2c1`, the “% Inhibition @ 10 uM” value came to 1.67%. To `Cc1ccccc1-c1noc(N)c1C#N` belongs -1.08%. Turning to `COC(=O)c1[nH]c2ccc(F)cc2c1NS(=O)(=O)c1ccc2nc(O)sc2c1`, the “% Inhibition @ 10 uM” value came out at 0.776%.

In the case of `O=C(NC1CCN(c2ncccn2)CC1)C1CCN(c2cnccn2)CC1`, the “% Inhibition @ 10 uM” value was 6.89%. Consider `COc1cc(OC)c(OC)cc1CNCCNC(=O)c1nonc1N`, for which the “% Inhibition @ 10 uM” value amounted to 0.00706%.

Turning to `CC1(C)CC(O)=C(C(NC(=O)c2cccnc2)(C(F)(F)F)C(F)(F)F)/C(=N/Cc2ccccc2)C1`, the “% Inhibition @ 10 uM” value is recorded as -4.35%. To `Cc1ccc(S(=O)(=O)NC(=O)Nc2ccc(Cl)c(C(F)(F)F)c2)cc1` belongs -1.06%.

`Cc1cccc(C2=N/C(=C\c3cc4c(cc3Cl)OCO4)C(=O)O2)c1`: the “% Inhibition @ 10 uM” value is reported as 1.25%. On to `O=C(NC(Cc1ccccc1)C(=O)O)/C(=C/c1ccc(Cl)cc1)NC(=O)c1ccco1` (centres unmarked), for which the “% Inhibition @ 10 uM” value turned out to be 7.1%. To `N#CC1=C(N)Oc2[nH]nc(-c3ccc(Cl)cc3)c2C1CCc1ccccc1` (centres unmarked) belongs 6.58%; to `CCN(CC)C1CC(=O)N(c2c(C)cccc2C)C1=O` (centres unmarked), -15.4%. As for `COc1ccc(OC)c(N(CC(=O)NC2CCCC2)S(C)(=O)=O)c1`, the “% Inhibition @ 10 uM” value is on record as -5.4%. For the molecule `CCc1ccc(S(=O)(=O)c2nnn3c2nc(NC2CC2)c2cc(Cl)ccc23)cc1`, the “% Inhibition @ 10 uM” value amounted to 7.82%. As to `CC(C)CCNC(=O)c1ccc2nc(N3CCOCC3)sc2c1`, the “% Inhibition @ 10 uM” value was -2.37%. To `CC1CCN(S(=O)(=O)c2ccc(NC(=O)c3cccs3)cc2)CC1` belongs -5.96%. For `CC1=CC2=NC(=O)/C(=C\c3cc(C)n(-c4cc(C)cc(C)c4)c3C)C(=N)N2O1`, the “% Inhibition @ 10 uM” value is on record as -1.43%.

`COc1ccccc1CNC(=O)[C@H](CCSC)N1Cc2ccccc2C1=O`: the “% Inhibition @ 10 uM” value was determined as 2.93%. To `COc1ccc(NC(=O)COc2ccc([N+](=O)[O-])cc2)cc1` belongs -2.62%; to `N#CC1=C(SCc2ccccc2)SCNC1=O`, -3.53%; to `O=C(O)C1CCCCC1C(=O)Nc1cccc(C(F)(F)F)c1` (centres unmarked), -2.85%. Take `COc1ccc(/C=C2/NC(=O)N(Cc3cccc(C)c3)C2=O)cc1O`: the “% Inhibition @ 10 uM” value is listed as -10%.

Consider `O=C(O)COc1ccc(/C=C2\SC(=O)N(Cc3ccc(F)cc3)C2=O)cc1`, for which the “% Inhibition @ 10 uM” value was -5.26%. Take `Cc1ccc(S(=O)(=O)n2ncc3c2CCN(C(=O)OC(C)(C)C)C3)cc1`: the “% Inhibition @ 10 uM” value is 0.708%. Then `CC(NC(=O)Cn1ncc2c3ccccc3n(Cc3ccccc3)c2c1=O)c1ccccc1` (centres unmarked), with 3.4%. Then `CCOC(=O)COc1nc(C)cc(C)c1C#N`, with 4.54%. Then `CN1CCC(N2CCCC3CCCCC32)CC1` (centres unmarked), with -3.6%; and `CCOC(=O)N1CCC(NCC(C)c2ccccc2)CC1` (centres unmarked), with 1.57%; and `O=C(c1cccc(F)c1)N1CCN(C2CCC(c3ccccc3)CC2)CC1` (centres unmarked), with 3.86%. For `Cc1nc2ncnn2c(C)c1CCC(=O)O`, the “% Inhibition @ 10 uM” value is -2.83%. To `O=C(COCc1cc(-c2ccco2)on1)N1CCC2(CC1)OCCO2` belongs -6.13%.

With `CNC(=O)c1c(N)sc2c1CCCCC2`, the “% Inhibition @ 10 uM” value was 26.4%.

Turning to `O=[N+]([O-])c1ccc(N2CCCC2)c2ncccc12`, the “% Inhibition @ 10 uM” value is recorded as 0.00784%. To `COc1ccc(NS(=O)(=O)c2ccc(NC(=O)Nc3cccc4ccccc34)cc2)cc1` belongs 1.89%. To `C=CCNC(=O)c1cc(-c2ccc3c(c2)OCO3)on1` belongs 1.82%; to `Cc1cc(Oc2ccccc2F)nc(NCc2ccccc2)n1`, 4.74%. Turning to `COc1cc(-c2nc(S(=O)(=O)c3ccccc3)c(N3CCOCC3)o2)cc(OC)c1OC`, the “% Inhibition @ 10 uM” value is listed as -5.49%.

`Cc1ccc(Sc2ccc(/C=C3\C(=N)N4N=C(N5CCOCC5)SC4=NC3=O)o2)cc1`: the “% Inhibition @ 10 uM” value came to 3.32%. To `Cc1ccc(OCC(=O)NCCCCN2CCOCC2)cc1` belongs -6.67%. For the molecule `CCCCN(CCCC)CCCn1cnc2c3cc(OC)ccc3nc-2c1O`, the “% Inhibition @ 10 uM” value was determined as 4.8%. Then `Cc1ccc2oc(C(=O)NC3CCS(=O)(=O)C3)c(C)c2c1` (centres unmarked), with -3.18%; and `COc1ccc([C@H]2[C@H](C(=O)O)[C@H](c3ccc(OC)cc3)[C@H]2C(=O)O)cc1`, with -2.41%; and `CCOCCO/C(O)=C1\C(C)=NC2=C(C(=O)CC(c3ccccc3)C2)C1c1ccccc1OCC` (centres unmarked), with -5.28%. Then `O=C(Cc1ccc(Br)cc1)NCCN1CCOCC1`, with -0.357%; and `CCN(c1ccccc1)S(=O)(=O)c1ccc(NC(=O)c2ccccc2Cl)cc1`, with -0.312%. Then `CCN(CC)CCN(CC)CC(C)c1ccccc1` (centres unmarked), with -6.62%.

As to `Cc1cc(C)c(S(=O)(=O)N(C)Cc2ccccc2)c(C)c1`, the “% Inhibition @ 10 uM” value is -2.54%. Then `Nc1nc(N2CCCCC2)ncc1F`, with 6.49%; and `Cc1nn(CC(=O)N2CC(C)CC(C)C2)c(=O)c2cc3sccc3n12` (centres unmarked), with -3.35%; and `CC1CCc2nn(CC(=O)NC3CCCc4ccccc43)cc2C1` (centres unmarked), with 4.95%. Then `CN(Cc1ccco1)c1ncnc2onc(-c3ccc(F)cc3)c12`, with 4.74%; and `COc1cc(CNCCO)ccc1OCc1ccccc1`, with -2.83%. To `Cn1c(=O)c2c(ncn2Cc2ccc(F)cc2)n(C)c1=O` belongs -7.94%; to `O=C(Nc1cccc(Cl)c1)Nc1cccc(Cl)c1Cl`, 3.1%; to `NC(=O)COc1ccccc1/C=C1/SC(Nc2cccc(C(F)(F)F)c2)=NC1=O`, 10.5%. On to `COc1ccccc1C1C2=C(O)CC(C)(C)CC2=Nc2nc(SCCN(C)C)nc(O)c21` (centres unmarked), for which the “% Inhibition @ 10 uM” value is on record as 1.02%.
